± gives the standard deviation of the averaged measurements. This is one part of the list.
These sequences were tested on PfAP2-I AP2 domain 3 (GST-tagged) (assay: gcPBM binding intensity (ln(normalized median fluorescence intensity)); higher = stronger DNA binding).
Outline: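 After 1 h on an Agilent 4 × 180k array of primer-extended double-stranded 36-bp intergenic genomic probes and negative controls, bound GST-tagged P. falciparum DNA-binding domains were detected with Alexa488 anti-GST antibody and scanned at 488 nm. The domains had been expressed in E. coli, and binding took place in 1× PBS with 1% milk, 0.2 mg/ml BSA, 0.5% salmon testes DNA and 0.03% Triton X-100. Binding intensity is the highest Masliner-normalised natural-log median intensity across replicate spots of either probe orientation.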

Sequence	gcPBM binding intensity (ln)
TACAACCTTTAGACAAGTACAAGAATTATATGTGGC [XGTACX_site4581]	7.99 ± 0.46
TGTATATCACATGAGAGGTGGAGATGGGGATAAATA [CACACA_negctrl_site1148]	7.96 ± 0.52
ATACAATTCTTACATTGTACTTTTTTTTTTTATCAC [XGTACX_site6327]	7.8 ± 0.65
ACAAAATATATAGACACACAAACACAAATATGTTTT [CACACA_site3016]	7.66 ± 0.43
TAATACAGATTAAAAGGTACACTTATTTGGTATTAT [XGTACX_site4966]	7.79 ± 0.33
TTAATATGAATTATTACATGCAACTAAATATATTTA [TGCATGCA_site490]	7.7 ± 0.48
AATAAAAAAATATGAAATTATGACATATAGCATTTG [TGCATGCA_negctrl_site160]	7.43 ± 0.56
TACATAAATTAAAACACACACACACCCAAAAAAAAA [CACACA_site2261]	8.355 ± 0.021
GTGTATATTATTTTATCACACATGTACATATGTTAA [CACACA_site5473]	7.89 ± 0.49
AAAAAATAAAAAGATACACACATATGTATAATATAC [CACACA_site1496]	7.78 ± 0.69
GTTAAAAGAAAAATATGTACATAAAAAAATTAGAAA [XGTACX_site578]	8.05 ± 0.38
TTTTCAATTAAAAAAAAATTATATTTTATTATTACA [CACACA_negctrl_site142]	7.13 ± 0.44
AAGATGGTAAAGAATTGTACGCGCATATATATATTT [XGTACX_site3904]	8.03 ± 0.56
TATATATATATATGATGTACACATTTTATTATTTGT [XGTACX_site1147]	9.28 ± 0.33
CTCTTGTTTCCATATAGTACGTAATAATATATACAA [XGTACX_site2428]	8.39 ± 0.18
AATTTGATAATATCATGTACATGAAAGAATTCATGA [XGTACX_site8463]	7.46 ± 0.52
TATTATATTTTTATTTGTACGTAAAATTAAGTTATG [XGTACX_site2405]	8.02 ± 0.014
AAAAATATAAACAAACGTACGAAGTGATGATATATT [XGTACX_site2242]	7.68 ± 0.83
AAAAAAAAAAAACACACACACACACCCATATATAAA [CACACA_site1170]	7.96 ± 0.48
ACATAAAATTATTATACATGCATATTTAATTTTTTC [TGCATGCA_site353]	7.83 ± 0.75
TGTAGTCTGGAGAAGAGTACATAGTATCTGGTAGCT [XGTACX_site2029]	7.9 ± 0.62
GAATTGTATTGGTACTGTACAATTAAATTAAAAAAA [XGTACX_site1891]	7.72 ± 0.62

Sequence	gcPBM binding intensity (ln)
TTTTTTGTTAAGTTGGTGCAAACAATAGTTATTGAC	10.6 ± 0.76
GGAGCACCCAGACACACACACACATATATATATATA [CACACA_site336]	9.35 ± 0.42
TATATCTACTACACACGTACACAAAATAAGATACCT [XGTACX_site7886]	8.09 ± 0.55
ATATAGGTAAAAAGTATACACACGTTGACACATTCT [CACACA_site1199]	7.7 ± 0.67
ATAATATAATTTTGCAGTACCCAAAAAACAAAATAA [XGTACX_site4827]	8.23 ± 0.35
AATATGATATATATATGTACATATATATAATATAAT [XGTACX_site3072]	7.76 ± 0.45
AAAGTATAATAATACACACACTTTAAAAGTTAAATG [CACACA_site7550]	7.71 ± 0.6
AAAAGATGCGCATACACACAGATGAATAACAAAAAA [CACACA_site6865]	7.95 ± 0.89
GCACATTTTTTTATCACACATATAATTACAATATAA [CACACA_site5585]	8.38 ± 0.47
TACGTATGCCTGTGATGTACATATATATATACATAC [XGTACX_site4728]	7.95 ± 0.54
TTTCGGTTTTTTTTTATTTTTTTTTTTTTATTATTT [CACACA_negctrl_site335]	7.51 ± 0.59
GGACATTTTTATAAGGTGCACGGTTTTGATATTACT [GTGCAC_site9892]	10.4 ± 0.18
ATAATGATATATAGTACACACAAAAATGGAAGTAAA [CACACA_site7541]	7.97 ± 0.57
AACCACATACATATAACACACATATACAATATATAT [CACACA_site8607]	8.3 ± 0.33
TGACTATGTATATTTAGTACATAAAATCAATAATAT [XGTACX_site4082]	7.81 ± 0.48
AAGGGTTGCCTGTGTAGTACATATATATATATATAT [XGTACX_site8555]	9.5 ± 0.65
AAATATAAGAAAAAGGTGCTTTTTTTTTTTTTTTTT [GTGCAC_site9700]	9.79
AGGGAAAAAAAAAAAGTGCATTTGTATTAAATGAAT	9.9 ± 0.028
GTAAACAAAATATTTTGTACATATTTTATATTATTT [XGTACX_site7837]	7.65 ± 0.58
TCATTCATAAAAATAACACACAAAAAAAAAAAAAAA [CACACA_site1800]	8 ± 0.66
AAATTATATTATTGAACACACGTTTGGTAATGTTTT [CACACA_site5469]	7.57 ± 0.65
TTTTTTTTTTTAAAAAGTACACAATTAATTAATATA [XGTACX_site8494]	7.97 ± 0.42

Sequence	gcPBM binding intensity (ln)
ATATTGTTTTATATAGAACACACATAAAAATATATA [CACACA_site8314]	7.75 ± 0.28
GGCATAAATATATGCACACACAAAAAAAAAAAAAAA [CACACA_site59]	9.54 ± 0.38
GAAAGAATAAAATTTACACACATATATATATACATA [CACACA_site2250]	7.61 ± 0.44
ATATATATATATATATGTACTTATTTGAATACTAAA [XGTACX_site2330]	9.24 ± 0.59
AAAATAAGAAATAGATGTACTTATAAATAAATACAA [XGTACX_site4441]	7.5 ± 0.28
TTATTGAAAAAAGAACAAAAAAAAAAAGAAAAATTA [XGTACX_negctrl_site438]	7.2 ± 0.55
TATAAACATTATAAATGTACAAATATATATATATAT [XGTACX_site3218]	9.09 ± 0.4
TCATTATATCATGGTAGTACTCATTAATAATACGTA [XGTACX_site8701]	7.93 ± 0.35
GTTAATAAAAATATATGTACATAATTATTATGAAAA [XGTACX_site3030]	7.91 ± 0.43
TATATATTTTTTAAACCACACACAATATAGAGTATA [CACACA_site8106]	7.88 ± 0.42
AATATTATTTAGGAGCGTACGTTTTATTTACATATT [XGTACX_site5188]	7.71 ± 0.53
ATCTATAAATTTCCACGTACATATATATATATATAT [XGTACX_site4502]	9.36 ± 0.34
TTTTAAATATATGTGCTATTATATTAAGAGATGTAA [GTGCAC_negctrl_site560]	8 ± 0.39
CCTCTTTTTATTCTCACACACGTTTATATATAAAGT [CACACA_site4992]	8.46 ± 0.42
GAAATTTCCCATATTACACACATACTATGATATATA [CACACA_site5987]	7.93 ± 0.6
TTTTTTATTTTTGCGTGTACATAATAATGAATCTTC [XGTACX_site8077]	8.1 ± 0.67
CCTATTTATAAATACACACACATATATAAATAAATA [CACACA_site5629]	8.09 ± 0.23
AAAAAGAAATCCAATACACACCTTCAAAATGGGTAT [CACACA_site4978]	7.53 ± 0.77
TATTTATAGATATATACACACATATTTATATTTATA [CACACA_site6441]	7.5 ± 0.51
AAAAAACTATTATGTGCATGCACAAGTCAGGTAAAT [TGCATGCA_site791]	9.58 ± 0.83
CATTAAATATATAAATGTACAAATATATTTTTCAAA [XGTACX_site4429]	7.54 ± 0.23
TTAATGTAGAGAAAATGTACATTTTATTAAAACAAT [XGTACX_site6376]	7.84 ± 0.61

Sequence	gcPBM binding intensity (ln)
TTGTTCATATTTTTTATTGTGTTAATATTTATAAAA [GTGCAC_negctrl_site423]	8.05 ± 0.41
ATAAAAGAATAAATAAAACACATATATATATATATA [XGTACX_negctrl_site31]	9.29 ± 0.47
ATATAAATCAAAAACGCACACATAAATATTTATATA [CACACA_site2442]	8.27 ± 0.25
TTTTTTTTTTTTTTGGTGCACATAGAAATTCTAAAA [GTGCAC_site9809]	10.9 ± 0.6
AAAAGAAAATAAGAAACACACAAAAATATATAAAAA [CACACA_site3697]	7.65 ± 0.92
TTCTTTGCTTTTCAAACACACAAAAGTTATTATATT [CACACA_site521]	7.95 ± 0.69
TTATAAATGTATTTATGTACATATAAATATATATAA [XGTACX_site2970]	7.61 ± 0.18
TCATATTCCAAAAAAAAAAAAAAAAAAAAAAAAATA [CACACA_negctrl_site1293]	7.53 ± 0.33
AATATATATATATTATGTACACATAGAAATATATTA [XGTACX_site3874]	7.8 ± 0.27
AATTATATATAAAAAGTGCAAAACGATAATTCATCA	9.795 ± 0.049
ATGTATTACTTAAATATATGAAACATATTACTTTTA [CACACA_negctrl_site496]	7.24 ± 0.49
TTTTAGCTATTTTAATATAATGAAGCAAAAAATAAA [TGCATGCA_negctrl_site576]	7.82 ± 0.085
ATAATAAATTCTACGCGTACAAAACCATGAACATTA [XGTACX_site7505]	8.02 ± 0.38
CTTTCAAAATTATTTATAGTATCTCATATTTTAGTA [XGTACX_negctrl_site72]	7.29 ± 0.6
ATCCTTTATAAATAAGTGCATATAAAAAATAATATT [GTGCAC_site9759]	10.1 ± 0.3
ACACATATGTATATATGTACTTATATATATATATAT [XGTACX_site8632]	9.2 ± 0.35
CACACGTAAAAGTATAATATAAAAAAGGTATACACT [CACACA_negctrl_site127]	7.76 ± 0.73
TATTTAAAGATATATACACACATTTGATATTATTAT [CACACA_site6509]	7.69 ± 0.42
ACCTACATACATATGTGTACTTATTTGTATTCACTG [XGTACX_site7124]	8.13 ± 0.47
ATAATATATGAAAAAACGATTTTTTCATTTTAAATA [XGTACX_negctrl_site146]	7.69 ± 0.52
TTTATAAACAAATGAACACACAAACATATTTATATA [CACACA_site7478]	7.76 ± 0.2
AAAAAAAAAATTTTCGTGCACATAAGAAAATTTAAA [GTGCAC_site9788]	10.3 ± 0.16
